Out of some 48,000 compounds screened, about 450 (0.94%) were called active. Inconclusive results, whose numbers are uncertain, are shown with a selection of clear calls. Calls follow the shape of the dose curve; as a rule, active = well fitted inhibition curve with a large enough effect; inconclusive = small, poorly fitted or top-dose-only effect; inactive = no such curve, though single readings can be large or run the other way. Potencies of inconclusive entries are doubtful fits and often do not repeat.
Assay: Primary qHTS for Identification of Small Molecule Inhibitors of Huntingtin Promoter Activity; also: nearly all actives have a fitted effect of over 50% in size
Conditions: HEK293 HTT promoter firefly luciferase reporter (activity 0% = vehicle and -100% = no light), 24 h; series mostly up to 57.5 µM
Method in brief: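 HEK293 Fluc reporter, 2,500 cells/well, 24 h pre-culture; cpds up to 57.5 uM final, 24 h 37 degrees C; Dual-Glo, 10 min RT; normalized vehicle = 0%, zero RLU = -100%.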
In the case of `CCCCN(C)CCNC(=O)C1CCN(c2nc3ccc(CC)cc3s2)CC1`, the Potency is reported as “inactive”.
In the case of `CCCOc1ccc(-c2cccc(NS(=O)(=O)c3cc(OC)ccc3OC)c2)nn1`, the Potency is reported as inconclusive: 20 µM [inhibitor, partial curve, poor fit].
With `Cc1cc(N2CCCCC2)nc2ccc(NC(=O)c3ccc(F)cc3)cc12` the Potency was “inactive”.
With `CCOC(=O)c1c(NC(=O)CSc2cn(CCNC(=O)c3ccc(OCC)cc3)c3ccccc23)sc2c1CCCC2` the Potency was inconclusive: 28.2 µM [inhibitor, partial curve, poor fit].
With `COc1ccc(OC)c(C2CC(=O)N(c3cccc(C)c3)C3=C2C(=O)OC3)c1` (configuration not stated) the Potency was “inactive”.
In the case of `Nc1nc(=S)c2[nH]cnc2[nH]1`, the Potency is reported as inconclusive: 6.11 µM [inhibitor, full curve].
In the case of `Cc1cc(F)ccc1Nc1nc2ccccc2n2nnnc12`, the Potency is reported as “inactive”.
With `O=C(CSc1nc2cc3ccccc3cc2[nH]1)Nc1cccc(C(F)(F)F)c1` the Potency was “inactive”.
In the case of `CNS(=O)(=O)c1cn(CC(=O)Nc2ccc(OC)c(Cl)c2)cc1S(=O)(=O)NC`, the Potency is reported as “inactive”.
With `COc1ccc(-c2cc(C(C)=O)c(C)n2CCC(=O)Nc2cc(C)ccc2OC)cc1` the Potency was “inactive”.
With `CCN(c1ccccc1)c1nnc(NC(=O)Nc2cccc(C(F)(F)F)c2)s1` the Potency was inconclusive: 12.6 µM [inhibitor, partial curve].
In the case of `Cc1ccc(C)c(N2CCN(c3ncnc4onc(C)c34)CC2)c1`, the Potency is reported as inconclusive: 2 µM [inhibitor, full curve, poor fit].
For `CCc1ccc(NC(=O)c2cc3ccccn3n2)cc1`, the Potency was inconclusive: 15.8 µM [inhibitor, single point].
In the case of `O=C(CSc1nc(=O)[nH]c2c1CCCC2)Nc1cc(C(F)(F)F)ccc1Cl`, the Potency is reported as inconclusive: 20 µM [inhibitor, partial curve, poor fit].
For `CCCOc1ccn2c(C(C)=O)cc(-c3ccccc3S(C)(=O)=O)c2c1`, the Potency was “inactive”.
In the case of `CC(C)c1ccc(NC(=O)C2CCCN(S(=O)(=O)c3ccc(Br)s3)C2)cc1` (configuration not stated), the Potency is reported as inconclusive: 39.8 µM [inhibitor, single point].
In the case of `COc1ccc(-n2cc(-c3ccccc3)c3c(SC(C)C(C)=O)ncnc32)cc1` (configuration not stated), the Potency is reported as “inactive”.
In the case of `c1ccc(CNc2nc(NCc3ccccc3)c3ccccc3n2)cc1`, the Potency is reported as inconclusive: 24.3 µM [inhibitor, partial curve].
With `COc1cc(OC)c(OC)cc1CN1CCc2nc(N3CCN(c4ncccn4)CC3)ncc2C1` the Potency was inconclusive: 25.1 µM [inhibitor, partial curve].
In the case of `CCN1CCN(C(=O)c2ccc3c(c2)N(Cc2cccc(Cl)c2)C(=O)c2ccccc2S3(=O)=O)CC1`, the Potency is reported as inconclusive: 12.6 µM [inhibitor, partial curve].
In the case of `CCc1nnc(SCc2ccc(F)cc2Cl)c2cc3sccc3n12`, the Potency is reported as “inactive”.
In the case of `[O-][n+]1cccc(/C(Cl)=N/OC[C@@H](O)CN2CCCCC2)c1`, the Potency is reported as “inactive”.
In the case of `COc1ccc(Nc2nnc(-c3ccc(C)c(S(=O)(=O)NCc4nc5ccccc5[nH]4)c3)c3ccccc23)cc1`, the Potency is reported as inconclusive: 25.1 µM [inhibitor, partial curve, poor fit].
For `CCC(C)Sc1oc(-c2ccco2)nc1S(=O)(=O)c1ccc(Cl)cc1` (configuration not stated), the Potency was inconclusive: 28.2 µM [inhibitor, partial curve, poor fit].
In the case of `O=C(NCc1ccc(Cl)cc1)c1ccc2c(c1)NC(=O)C(CS(=O)(=O)Cc1ccc(F)cc1Cl)N2` (configuration not stated), the Potency is reported as inconclusive: 22.4 µM [inhibitor, single point].
With `CCc1ccc(NC(=O)C2CCCN(S(=O)(=O)c3cccc4nsnc34)C2)cc1` (configuration not stated) the Potency was inconclusive: 28.2 µM [inhibitor, single point].
With `Cc1cccc(CN2C(=O)c3ccccc3S(=O)(=O)c3ccc(C(=O)N(C)Cc4ccccc4)cc32)c1` the Potency was inconclusive: 39.8 µM [inhibitor, single point].
With `CCOc1ccccc1C(=O)Nc1ccc(-n2nncc2-c2ccccc2)cc1` the Potency was inconclusive: 39.8 µM [inhibitor, partial curve, poor fit].
With `CN(C)c1ccc(CNC(=O)C2CCCN(S(=O)(=O)c3ccc4c(c3)CCCC(=O)N4)C2)cc1` (configuration not stated) the Potency was inconclusive: 10 µM [inhibitor, partial curve].
With `Cc1ccccc1C(=O)NCc1nc(-c2ccc(Cl)cc2)no1` the Potency was inconclusive: 39.8 µM [inhibitor, single point].
In the case of `COc1ccc(N2C(=O)CSC23C(=O)N(Cc2cccc(C(F)(F)F)c2)c2ccccc23)cc1` (configuration not stated), the Potency is reported as inconclusive: 22.4 µM [inhibitor, single point].
In the case of `Cc1ccc(S(=O)(=O)c2nc(-c3cccs3)oc2SCC(=O)Nc2cc(C)cc(C)c2)cc1`, the Potency is reported as inconclusive: 15.8 µM [inhibitor, single point].
For `Cc1cccc(Cn2c(=O)n(CCCC(=O)NCc3ccccc3Cl)c(=O)c3ccccc32)c1`, the Potency was inconclusive: 39.8 µM [inhibitor, single point].
For `CCOC(=O)N1CCc2c(sc(NCc3cccc(F)c3)c2C(=O)Nc2ccc(OC)cc2)C1`, the Potency was inconclusive: 28.2 µM [inhibitor, single point].
For `COC(=O)CC1Oc2ccc(F)cc2-n2cc(-c3ccc(C)cc3)nc21` (configuration not stated), the Potency was inconclusive: 39.8 µM [inhibitor, single point].
With `COc1ccc(N(Cc2cccs2)C(=O)COc2cccc(C)c2C)cc1` the Potency was inconclusive: 35.5 µM [inhibitor, single point].
For `CCOc1ccc(-n2ccnc2SCC(=O)Nc2cccc3ccccc23)cc1`, the Potency was inconclusive: 39.8 µM [inhibitor, single point].
In the case of `Cc1cccc(CC(=O)N2CC(=O)Nc3ccc(C)cc3C2c2ccc(F)cc2)c1` (configuration not stated), the Potency is reported as inconclusive: 25.1 µM [inhibitor, partial curve, poor fit].
With `CCOc1ccccc1CNC(=O)CCC(=O)N1CCSc2ccccc21` the Potency was inconclusive: 28.2 µM [inhibitor, partial curve].
For `COc1ccc(OC)c(NC(=O)Cn2c(=O)n(Cc3ccco3)c(=O)c3cc(OC)c(OC)cc32)c1`, the Potency was “inactive”.
For `Brc1ccc(Nc2c3c(nc4nncn24)CCC3)cc1`, the Potency was inconclusive: 35.5 µM [inhibitor, single point].
With `Cc1ccc(NC(=O)C2CCC(CNS(=O)(=O)c3ccc4c(c3)CCCC(=O)N4)CC2)cc1F` (configuration not stated) the Potency was inconclusive: 22.4 µM [inhibitor, partial curve, poor fit].
With `CS(=O)(=O)N1CCc2c(-c3cnc(N)nc3)nc(N3CCOCC3)nc21` the Potency was “inactive”.
For `CCCCN1CCCc2cc(CN(CCCN3CCOCC3)C(=O)Nc3ccc(CC)cc3)ccc21`, the Potency was “inactive”.
In the case of `COc1ccc(S(=O)(=O)N(CC(=O)NCCSc2ccccc2)c2ccc(C)cc2)cc1`, the Potency is reported as inconclusive: 35.5 µM [inhibitor, partial curve, poor fit].
For `CC(=O)c1cccc(NC(=O)Cc2ccc(NC(=O)N3CCCCc4ccccc43)cc2)c1`, the Potency was inconclusive: 39.8 µM [inhibitor, single point].
With `CCOC(=O)c1cc(-c2ccccc2)n(CCC(=O)NCCc2cccc(C)c2)c1C` the Potency was inconclusive: 31.6 µM [inhibitor, single point].
In the case of `COc1ccc(S(=O)(=O)NCCc2sc3nc(-c4ccc(C)cc4)nn3c2C)cc1C`, the Potency is reported as inconclusive: 15.8 µM [inhibitor, partial curve].
With `CCCCNc1oc(-c2ccc(COc3ccccc3C)o2)nc1C#N` the Potency was inconclusive: 31.6 µM [inhibitor, single point].
With `Cc1c(Cl)cccc1NC(=O)c1oc2ccc(S(=O)(=O)N3CCC4(CC3)OCCO4)cc2c1C` the Potency was inconclusive: 10 µM [inhibitor, partial curve, poor fit].
In the case of `CCc1cccc(-n2c(=O)c3cccnc3n2CC(=O)Nc2ccc(OC)c(Cl)c2)c1`, the Potency is reported as inconclusive: 31.6 µM [inhibitor, partial curve, poor fit].
With `O=C1CN(C(=O)Cc2ccccc2)C(c2ccc(F)cc2)c2cc(Br)ccc2N1` (configuration not stated) the Potency was inconclusive: 31.6 µM [inhibitor, partial curve, poor fit].
For `CC(C)c1ccc(N2C(=O)N(Cc3cccc([N+](=O)[O-])c3)c3ccccc3S2(=O)=O)cc1`, the Potency was inconclusive: 20 µM [inhibitor, partial curve, poor fit].
In the case of `COc1cc(C2C(C(=O)Nc3ccccc3C)=C(C)Nc3nc(SCc4cc(C)ccc4C)nn32)ccc1O` (configuration not stated), the Potency is reported as inconclusive: 28.2 µM [inhibitor, single point].
With `O=S(=O)(NCCc1csc2nc(-c3ccccc3)nn12)c1ccc(Oc2ccccc2)cc1` the Potency was inconclusive: 28.2 µM [inhibitor, single point].
With `Cc1ccc(Cl)cc1N1CCN(C(=O)c2noc3c2CCCC3)CC1` the Potency was inconclusive: 39.8 µM [inhibitor, single point].
With `Clc1cccc(-n2ncc3c(NC4CCCCCC4)ncnc32)c1` the Potency was “inactive”.
With `CCOC(=O)c1ccc(NC(=O)CSc2ncc(S(=O)(=O)c3ccc(C)c(Cl)c3)c(=O)[nH]2)cc1` the Potency was “inactive”.
For `Cc1ccc2nc3c(c(Nc4ccc(C)c(C)c4)c2c1)CCC3`, the Potency was inconclusive: 39.8 µM [inhibitor, partial curve, poor fit].
With `Cc1ccc(F)cc1S(=O)(=O)N1CCC(c2nc3ccccc3s2)CC1` the Potency was inconclusive: 31.6 µM [inhibitor, partial curve, poor fit].
With `Cc1ccc(NC(=O)CCc2nc3cccnc3n2-c2ccccc2)cc1Cl` the Potency was inconclusive: 31.6 µM [inhibitor, single point].
For `Cc1ccc(N(Cc2cccs2)C(=O)c2ccccc2[N+](=O)[O-])cc1`, the Potency was inconclusive: 39.8 µM [inhibitor, single point].

Reference: PubChem BioAssay AID1508623 (National Center for Advancing Translational Sciences (NCATS), 2021)
Potency is read from the fitted curve at half-maximal effect; tags tell the direction and shape of the fitted curve.
